# In PubChem BioAssay (NCATS):
# Inconclusive results, whose numbers are uncertain, are shown with a selection of clear calls. No potency is given beside an inconclusive call; the fits are too rough. For some assays here: A note “side channel” means that the fit belongs to a control or component signal, not to the main read-out. Calls of active or inactive are those of the source. Unless noted, calls follow the shape of the full dose curve.
# What was measured:
# [1] = target: Estrogen receptor (Homo sapiens) (UniProt P03372); experiment: qHTS assay for small molecule antagonists of estrogen receptor alpha signaling (AID 588513; active = well fitted curve in the direction sought with a large enough effect in the signal ratio, with a control signal flat, not every such curve was filed as active; inconclusive = small, poorly fitted or top-dose-only effect, or effect the other way, or a change in a side signal; inactive = no such curve, though single readings can be large or run the other way; the % refers to the signal ratio; as to activity, negative = inhibition: % is scaled to controls: 0 for no effect and ±100 for the full control effect); conditions: ER-alpha-UAS-bla HEK293, beta-lactamase ratio, antagonist mode; activity, negative = inhibition: at 76.9 µM (top of the series) unless noted
# In short: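 ER-alpha-UAS-bla GripTite HEK 293 cells in medium with 2% charcoal/dextran-treated FBS were preincubated 4 h at 37 C, dosed with compound (1:2 titration), stimulated with 0.5nM 17-beta-estradiol for 18 h, then read by CCF4 beta-lactamase fluorescence.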
# [2] = target: Estrogen receptor (Homo sapiens) (UniProt P03372); experiment: qHTS assay for small molecule agonists of estrogen receptor alpha signaling (AID 588514); conditions: ER-alpha-UAS-bla HEK293, beta-lactamase ratio, 18 h; activation: at 76.8 µM (top of the series), percent of full estradiol response, vehicle zero; also: nearly all actives have a fitted effect of over 70% in size;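 as to activation: 0% = vehicle only and 100% = reference agonist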
# In short: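 Efficacy is expressed against 20 nM 17-beta-estradiol (100%) and DMSO basal (0%); EC50 from Hill equation. Assay: beta-lactamase reporter in ER-alpha-UAS-bla HEK 293 cells, 18 h compound incubation, CCF4 detection.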
# [3] = target: Peroxisome proliferator-activated receptor delta (Homo sapiens) (UniProt Q03181); experiment: qHTS assay for small molecule agonists of peroxisome proliferator-activated receptor delta signaling (AID 588534); conditions: HEK293T PPARdelta-UAS-bla, beta-lactamase ratio, 18 h; activation: at 76.7 µM (top of the series)
# In short: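 Agonist-mode qHTS; reporter cells, 5 hrs 37 C pre-incubation; compound titration, 18 hrs 37 C; CCF4 dye, 2 hrs RT; fluorescence read. EC50/efficacy via Hill fit.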
# [4] = target: Peroxisome proliferator-activated receptor delta (Homo sapiens) (UniProt Q03181); experiment: qHTS assay for small molecule antagonists of peroxisome proliferator-activated receptor delta signaling (AID 588535; active = well fitted inhibition curve with a large enough effect in the signal ratio, with a control signal flat, not every such curve was filed as active; inconclusive = small, poorly fitted or top-dose-only effect, or effect the other way, or a change in a side signal; inactive = no such curve, though single readings can be large or run the other way; the % refers to the signal ratio); conditions: HEK293T PPARd-UAS-bla, beta-lactamase FRET ratio, 18 h; activity change, negative = inhibition: at 76.7 µM (top of the series) unless noted
# In short: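 Fluorescence from CCF4-loaded GeneBLAzer PPAR-delta-UAS-bla HEK293T cells (2 hrs RT loading) quantified reporter inhibition after an 18 hr, 37 C compound exposure across a titration.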
# [5] = target: Peroxisome proliferator-activated receptor gamma (Homo sapiens) (UniProt P37231); experiment: qHTS assay for small molecule antagonists of peroxisome proliferator-activated receptor gamma signaling (AID 588537; active = well fitted inhibition curve with a large enough effect in the signal ratio, with a control signal flat, not every such curve was filed as active; inconclusive = small, poorly fitted or top-dose-only effect, or effect the other way, or a change in a side signal; the % refers to the signal ratio;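 also: reporter cells co-stimulated with 50 nM rosiglitazone agonist during compound treatment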; as to activity, negative = inhibition: % of control where 0% means no effect); conditions: HEK293 PPARg-UAS-bla, beta-lactamase ratio, antagonist mode; activity, negative = inhibition: at 76.8 µM (top of the series)
# In short: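 Fluorescence at 460 and 530 nm (405 nm excitation) reported beta-lactamase cleavage of CCF4 after 2 h room-temperature loading. HEK293 reporter cells in 1% charcoal/dextran-treated FBS had received compound and rosiglitazone for 16 h.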
# [6] = qHTS assay for small molecule agonists of the antioxidant response element (ARE) signaling pathway (AID 651741; active = well fitted activation curve with a large enough effect in the signal ratio; inconclusive = small, poorly fitted or top-dose-only effect, or effect the other way, or a change in a side signal; the % refers to the signal ratio); conditions: HepG2 ARE-bla reporter, beta-lactamase FRET ratio, 16 h; activation: at 96 µM (top of the series) unless noted
# In short: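 Stably integrated ARE-beta-lactamase reporter HepG2 cells; 16 h compound incubation, 37 C; LiveBLAzer FRET substrate 2 h at room temperature; fluorescence intensity.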
# [7] = qHTS assay for small molecule agonists of the antioxidant response element (ARE) signaling pathway measured by Nrf2-dependant transcriptional activity (AID 720636; active = well fitted curve in the direction sought with a large enough effect in the repeat runs; inconclusive = weak or mixed curves; inactive = no such curve, though single readings can be large; an effect the other way counts as inactive or inconclusive;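 as to activation: HepG2 cells with an ARE-driven luciferase reporter; % of control where 0% means no effect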)
# In short: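 First, ARE-luc HepG2 cells attached for 6 hr at 37 C in 1% dialyzed FBS medium. Next, compound or DMSO was added and incubated 16 hr. Finally, ONE-Glo reagent was added and luminescence measured after 30 min.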
# [8] = target: Glucocorticoid receptor (Homo sapiens) (UniProt P04150); experiment: qHTS assay for small molecule antagonists of glucocorticoid receptor signaling (AID 588533; active = well fitted inhibition curve with a large enough effect in the signal ratio, with a control signal flat, not every such curve was filed as active; inconclusive = small, poorly fitted or top-dose-only effect, or effect the other way, or a change in a side signal; the % refers to the signal ratio;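 also: cells stimulated with 2 nM dexamethasone as agonist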; as to activity change, negative = inhibition: % is scaled to controls: 0 for no effect and ±100 for the full control effect); conditions: HeLa MMTV-bla, GRE beta-lactamase ratio, antagonist mode, 18 h; activity change, negative = inhibition: at 76.8 µM (top of the series) unless noted
# [9] = target: Peroxisome proliferator-activated receptor gamma (Homo sapiens) (UniProt P37231); experiment: qHTS assay for small molecule agonists of peroxisome proliferator-activated receptor gamma signaling (AID 588536; active = well fitted curve in the direction sought with a large enough effect in the signal ratio, with a control signal flat, not every such curve was filed as active; inconclusive = small, poorly fitted or top-dose-only effect, or effect the other way, or a change in a side signal; inactive = no such curve, though single readings can be large or run the other way; the % refers to the signal ratio;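 as to activation: 0% = DMSO basal wells and 100% = rosiglitazone at 2 µM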); conditions: HEK293 PPARg-UAS-bla, beta-lactamase ratio, 16 h; activation: at 76.7 µM (top of the series), percent of rosiglitazone response, DMSO as zero unless noted
# In short: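 This is an agonist-mode beta-lactamase reporter assay in HEK293 PPAR-gamma-UAS-bla cells with 1% charcoal/dextran FBS. Compound titrations ran 16 h at 37 C before CCF4 detection. EC50 and efficacy are Hill fits scaled to 2 uM rosiglitazone (100%) and DMSO basal.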
# [10] = target: Vitamin D3 receptor (Homo sapiens) (UniProt P11473); experiment: qHTS assay for small molecule antagonists of vitamin D receptor signaling (AID 588541); conditions: HEK293T VDR-UAS-bla, beta-lactamase ratio, antagonist mode; activity change, negative = inhibition: at 76.7 µM (top of the series)
# [11] = target: Retinoic acid receptor RXR-alpha (Homo sapiens) (UniProt P19793); experiment: qHTS assay for small molecule agonists of retinoid X receptor alpha signaling (AID 588544); conditions: HEK293T RXRa-UAS-bla, beta-lactamase reporter, 18 h; activation: at 76.7 µM (top of the series) unless noted;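 as to activation: 0% = DMSO basal wells and 100% = reference agonist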
# [12] = target: Retinoic acid receptor RXR-alpha (Homo sapiens) (UniProt P19793); experiment: qHTS assay for small molecule antagonists of retinoid X receptor alpha signaling (AID 588546; active = well fitted inhibition curve with a large enough effect in the signal ratio, with a control signal flat, not every such curve was filed as active; inconclusive = small, poorly fitted or top-dose-only effect, or effect the other way, or a change in a side signal; inactive = no such curve, though single readings can be large or run the other way; the % refers to the signal ratio); conditions: HEK293T RXRa-UAS-bla, beta-lactamase ratio, antagonist mode
# In short: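 Beta-lactamase reporter inhibition, read as CCF4 fluorescence ratio (ex 405, em 460/530 nm) after 2 h at RT. HEK293T UAS-bla cells, 2500/well, were stimulated with 9-cis-RA at 500 or 100 nM final alongside test compound for 18 h at 37 C.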
# [13] = target: Thyroid hormone receptor beta (Homo sapiens) (UniProt P10828); experiment: qHTS assay for small molecule antagonists of thyroid hormone receptor beta signaling (AID 588547; active = well fitted inhibition curve with a large enough effect in the signal ratio, with a control signal flat, not every such curve was filed as active; inconclusive = small, poorly fitted or top-dose-only effect, or effect the other way, or a change in a side signal; the % refers to the signal ratio;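 as to activity change % (negative = inhibition): cells stimulated with 0.4 nM T3 agonist during compound exposure; % is scaled to controls: 0 for no effect and ±100 for the full control effect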); conditions: TR-UAS-bla HEK293, beta-lactamase ratio, antagonist mode, 18 h
# In short: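 TR-UAS-bla GripTite HEK293 cells in 2% charcoal/dextran FBS medium; compounds 0.59 nM to 92 uM with T3 at 0.4nM final, 18 h at 37 C. Beta-lactamase read by CCF4 fluorescence (460/530 nm); Hill fits gave IC50 and efficacy.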
# [14] = qHTS assay for small molecule activators of the p53 signaling pathway (AID 651743; active = well fitted activation curve with a large enough effect in the signal ratio, not every such curve was filed as active; inconclusive = small, poorly fitted or top-dose-only effect, or a change in a side signal; the % refers to the signal ratio); conditions: HCT-116 p53RE-bla, beta-lactamase FRET ratio, 16 h; activation: active compounds read high
# In short: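 Following 16 hours of compound exposure at 37 C, HCT-116 cells bearing the p53RE-bla reporter were loaded with LiveBLAzer B/G FRET substrate for 2 hours at room temperature and fluorescence intensity was recorded.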
# [15] = qHTS assay for small molecule activators of the nuclear factor-kappa B (NF-kB) signaling pathway (AID 651749; active = well fitted activation curve with a large enough effect in the signal ratio; inconclusive = small, poorly fitted or top-dose-only effect, or a change in a side signal; the % refers to the signal ratio); conditions: NF-kB-bla ME-180 cells, beta-lactamase FRET ratio, 16 h; activation: active compounds read high
# In short: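 In this qHTS format, compounds acting as activators increase NF-kB-driven beta-lactamase in ME-180 cells, measured as disrupted FRET after 16 hr exposure at 37C and 5% CO2.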
# [16] = qHTS assay for small molecule agonists of the antioxidant response element (ARE) signaling pathway measured by Nrf2-dependant transcriptional activity - cell viability counter screen (AID 720653; active = well fitted curve in the direction sought with a large enough effect in the repeat runs; inconclusive = weak or mixed curves; inactive = no such curve, though single readings can be large; an effect the other way counts as inactive or inconclusive); conditions: ARE-bla HepG2 viability, CellTiter-Glo ATP luminescence, 16 h; max response: active compounds read low
# In short: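 ARE-bla HepG2 cells treated with compounds for 16 h at 37C; this counter screen measures viability as intracellular ATP by CellTiter-Glo luminescence after 30 min at room temperature.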
# [17] = qHTS assay for cell viability of HEK293 cells (AID 743288; active = well fitted curve in the direction sought with a large enough effect; inconclusive = small, poorly fitted or top-dose-only effect, or another doubt; inactive = no such curve, though single readings can be large; an effect the other way counts as inactive or inconclusive; also: nearly all actives have a fitted effect of over 50% in size); conditions: ATP luminescence (CellTiter-Glo), 18 h; max response: active compounds read low
# In short: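 After 18 h compound exposure at 37 C, parental HEK293 cells (2,000/well) are lysed with CellTiter-Glo and luminescence is read following 30 min at room temperature.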
# Potency is read from the fitted curve at half-maximal effect; tags tell the direction and shape of the fitted curve or compound fluorescence and quenching.
# UniProt P03372, sequence (P03372 whole entry, looked up): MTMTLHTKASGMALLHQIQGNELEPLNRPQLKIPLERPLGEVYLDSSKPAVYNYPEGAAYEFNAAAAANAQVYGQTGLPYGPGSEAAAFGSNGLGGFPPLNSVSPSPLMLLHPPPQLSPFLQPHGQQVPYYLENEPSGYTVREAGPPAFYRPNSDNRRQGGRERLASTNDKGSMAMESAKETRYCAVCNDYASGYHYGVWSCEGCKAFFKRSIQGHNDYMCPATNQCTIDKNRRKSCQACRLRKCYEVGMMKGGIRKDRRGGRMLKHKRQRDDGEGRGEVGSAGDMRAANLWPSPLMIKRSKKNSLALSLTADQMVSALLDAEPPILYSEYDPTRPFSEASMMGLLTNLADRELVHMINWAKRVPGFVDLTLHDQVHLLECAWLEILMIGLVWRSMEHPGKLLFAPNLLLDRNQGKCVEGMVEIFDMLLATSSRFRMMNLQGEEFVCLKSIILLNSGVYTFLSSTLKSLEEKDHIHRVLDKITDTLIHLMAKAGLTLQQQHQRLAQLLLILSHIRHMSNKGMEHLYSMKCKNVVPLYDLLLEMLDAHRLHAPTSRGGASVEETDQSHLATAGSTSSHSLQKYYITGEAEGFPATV
# UniProt P19793, sequence (P19793 whole entry, looked up): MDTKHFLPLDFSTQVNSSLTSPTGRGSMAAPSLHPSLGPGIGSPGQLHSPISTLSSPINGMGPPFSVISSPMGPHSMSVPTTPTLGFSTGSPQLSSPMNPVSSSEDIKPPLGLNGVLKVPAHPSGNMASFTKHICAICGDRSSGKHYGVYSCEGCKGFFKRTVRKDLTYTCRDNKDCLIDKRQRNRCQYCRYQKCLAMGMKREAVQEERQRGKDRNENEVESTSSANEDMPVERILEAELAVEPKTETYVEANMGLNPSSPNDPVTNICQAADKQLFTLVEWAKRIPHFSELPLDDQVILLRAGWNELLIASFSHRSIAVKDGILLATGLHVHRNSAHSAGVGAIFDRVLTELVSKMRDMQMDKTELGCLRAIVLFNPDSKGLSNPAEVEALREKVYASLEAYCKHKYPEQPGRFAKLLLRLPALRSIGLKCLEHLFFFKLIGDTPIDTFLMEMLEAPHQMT
# UniProt Q03181, sequence (Q03181 whole entry, looked up): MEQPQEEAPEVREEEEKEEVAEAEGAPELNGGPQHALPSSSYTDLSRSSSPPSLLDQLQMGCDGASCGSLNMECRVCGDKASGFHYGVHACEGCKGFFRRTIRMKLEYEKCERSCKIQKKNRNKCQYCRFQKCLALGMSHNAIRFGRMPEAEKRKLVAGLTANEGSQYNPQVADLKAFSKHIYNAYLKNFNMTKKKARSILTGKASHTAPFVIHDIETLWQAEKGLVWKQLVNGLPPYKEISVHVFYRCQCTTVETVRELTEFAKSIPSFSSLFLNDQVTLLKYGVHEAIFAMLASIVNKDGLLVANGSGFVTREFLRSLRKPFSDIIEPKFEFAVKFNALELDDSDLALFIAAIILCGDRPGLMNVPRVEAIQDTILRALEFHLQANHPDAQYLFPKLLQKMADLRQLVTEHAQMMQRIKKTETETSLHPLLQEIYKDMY
# UniProt P10828, sequence (P10828 whole entry, looked up): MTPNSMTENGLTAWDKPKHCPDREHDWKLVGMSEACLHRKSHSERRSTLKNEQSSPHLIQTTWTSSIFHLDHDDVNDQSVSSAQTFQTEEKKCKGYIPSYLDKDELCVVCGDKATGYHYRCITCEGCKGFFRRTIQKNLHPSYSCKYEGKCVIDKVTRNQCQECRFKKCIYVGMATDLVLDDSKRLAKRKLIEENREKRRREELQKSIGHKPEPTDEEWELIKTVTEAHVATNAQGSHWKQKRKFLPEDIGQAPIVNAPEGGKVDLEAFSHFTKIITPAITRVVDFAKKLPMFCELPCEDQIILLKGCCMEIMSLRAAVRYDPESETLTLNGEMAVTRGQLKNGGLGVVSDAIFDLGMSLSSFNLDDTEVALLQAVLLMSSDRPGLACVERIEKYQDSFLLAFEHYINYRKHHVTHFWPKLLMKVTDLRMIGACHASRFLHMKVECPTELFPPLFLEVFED
smiles,measurement,setting,value
CC(C)NC(=O)N1CC(=O)N(c2cc(Cl)cc(Cl)c2)C1=O,"activity, negative = inhibition",[1],inconclusive: -24.5%
same,Potency,[2],"inconclusive [side channel, rising, full curve, poor fit]"
same,Potency,[3],"inconclusive [side channel, rising, single point]"
same,Potency,[4],"inconclusive [fluorescent, side channel, single point]"
same,Potency,[5],active: 44.7 µM
same,Potency,[6],"inconclusive [activator, partial curve]"
same,Potency,[7],"inconclusive [activator, partial curve, poor fit]"
O=C1C(Cl)=C(Cl)C(=O)c2ccccc21,Potency,[1],"inconclusive [fluorescent, side channel, partial curve]"
same,Potency,[2],"inconclusive [side channel, rising, partial curve, poor fit]"
same,Potency,[8],"inconclusive [inhibitor, partial curve, poor fit]"
same,Potency,[3],"inconclusive [fluorescent, side channel, full curve]"
same,Potency,[4],"inconclusive [side channel, rising, partial curve]"
same,Potency,[9],"inconclusive [falling, full curve]"
same,Potency,[5],"inconclusive [side channel, rising, partial curve]"
same,Potency,[10],"inconclusive [side channel, rising, full curve]"
same,Potency,[11],"inconclusive [side channel, rising, partial curve]"
same,Potency,[12],"inconclusive [side channel, rising, single point]"
same,Potency,[13],"inconclusive [side channel, rising, partial curve]"
same,Potency,[6],active: 2.73 µM
same,Potency,[14],"inconclusive [side channel, falling, partial curve, poor fit]"
same,Potency,[15],"inconclusive [cytotoxic, side channel, partial curve]"
same,Potency,[7],"inconclusive [activator, partial curve]"
same,Potency,[16],"inconclusive [cytotoxic, single point]"
same,Potency,[17],"inconclusive [cytotoxic, partial curve, poor fit]"
CCOP(=S)(OCC)SCn1nnc2ccccc2c1=O,Potency,[1],"inconclusive [side channel, rising, single point]"
same,Potency,[2],"inconclusive [activator, single point]"
same,"activity change, negative = inhibition",[8],inconclusive: 45%
same,Potency,[9],inactive
same,"activity, negative = inhibition",[5],inconclusive: -19.6%
same,Potency,[11],"inconclusive [inhibitor, partial curve]"
same,Potency,[12],active: 39.8 µM
same,Potency,[6],active: 54.5 µM
O=C(O)c1c(Cl)ccc2cc(Cl)cnc12,Potency,[1],"inconclusive [inhibitor, full curve, poor fit]"
same,activation,[2],inconclusive: 1.15%
same,Potency,[5],inactive
same,Potency,[11],inactive
same,activity change % (negative = inhibition),[13],inconclusive: 6.6%
same,Potency,[7],inactive
